# Source: PMC4336329 (PLoS ONE, 2015)
# In all, about 310,000 compounds went through this assay and about 14,000 (4.5%) showed an effect of 50% or more. Effects have a minus sign here. Some of the results follow.
# Target: human ether-à-go-go-related gene (hERG) potassium channel (human, UniProt Q12809)
# Test: primary screen, population patch clamp on CHO cells stably expressing hERG
# 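Note: peak tail current of the secondary pulse compared with the same well before compound.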
# human ether-à-go-go-related gene (hERG) potassium channel, sequence (Q12809 whole entry, looked up): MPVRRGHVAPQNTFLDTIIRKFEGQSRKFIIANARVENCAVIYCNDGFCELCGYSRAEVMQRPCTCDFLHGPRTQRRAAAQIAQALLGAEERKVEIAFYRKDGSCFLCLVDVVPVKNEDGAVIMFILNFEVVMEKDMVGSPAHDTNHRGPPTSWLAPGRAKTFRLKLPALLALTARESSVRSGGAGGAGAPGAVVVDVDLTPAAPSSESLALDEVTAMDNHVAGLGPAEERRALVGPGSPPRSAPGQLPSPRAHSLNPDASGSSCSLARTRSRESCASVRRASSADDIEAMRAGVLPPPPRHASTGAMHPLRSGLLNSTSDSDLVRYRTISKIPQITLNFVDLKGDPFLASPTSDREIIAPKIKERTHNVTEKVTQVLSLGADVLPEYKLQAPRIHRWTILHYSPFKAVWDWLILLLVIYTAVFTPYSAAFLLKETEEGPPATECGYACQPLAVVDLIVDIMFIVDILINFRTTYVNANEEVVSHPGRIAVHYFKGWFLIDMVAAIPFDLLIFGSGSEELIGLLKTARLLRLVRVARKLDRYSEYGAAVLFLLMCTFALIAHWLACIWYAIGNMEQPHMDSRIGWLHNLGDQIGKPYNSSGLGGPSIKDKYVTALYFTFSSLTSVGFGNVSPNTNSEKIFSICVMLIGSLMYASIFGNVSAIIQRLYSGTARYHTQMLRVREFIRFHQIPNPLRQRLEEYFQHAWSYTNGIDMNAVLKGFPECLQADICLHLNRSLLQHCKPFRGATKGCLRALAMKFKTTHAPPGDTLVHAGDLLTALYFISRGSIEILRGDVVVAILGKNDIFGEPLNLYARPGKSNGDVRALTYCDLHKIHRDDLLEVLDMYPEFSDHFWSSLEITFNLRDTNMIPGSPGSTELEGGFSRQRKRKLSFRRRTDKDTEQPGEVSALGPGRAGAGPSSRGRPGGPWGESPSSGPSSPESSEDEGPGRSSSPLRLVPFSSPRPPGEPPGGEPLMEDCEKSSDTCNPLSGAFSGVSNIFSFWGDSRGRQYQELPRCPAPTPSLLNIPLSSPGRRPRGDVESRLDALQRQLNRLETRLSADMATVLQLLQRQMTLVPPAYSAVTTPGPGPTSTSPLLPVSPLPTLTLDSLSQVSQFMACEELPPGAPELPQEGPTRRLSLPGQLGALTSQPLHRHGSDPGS
row,Compound,"hERG current change (%, negative = inhibition) at 10uM [%]"
1,O=C(Cc1cccs1)N(c1ccc(Cl)cc1)C1C=CS(=O)(=O)C1 (centres unmarked),-0.945
2,COc1ccc(Nc2nc(N)nc(CN3CCC(C)CC3)n2)cc1,-75.4
3,CCOc1ccc(Nc2nc(Cc3nnc(SCC(=O)NCc4ccco4)n3CC)cs2)cc1,-15.7
4,CC(C)NC(=O)Cn1cc(C(=O)c2ccccc2F)c2ccccc21,7.27
5,Cc1c(Cl)cccc1NC(=O)CC(NCCN1CCOCC1)C(=O)O (centres unmarked),24.1
6,COC(=O)c1cnn(-c2ccc(F)cc2F)c1/C=N/NC(N)=S,-18.2
7,COC(=O)C1C(c2ccc(Cl)cc2)NC(c2ccc(Cl)cc2)C(C(=O)OC)S1(=O)=O (centres unmarked),2.6
8,COC(=O)CN1C(=O)C(C)(C)Oc2ccc(C(=O)NC3CCCC3)cc21,7.4
9,Cc1ccnc(NC(=O)C2CCN(S(=O)(=O)c3c(C)c(C)cc(C)c3C)CC2)c1,-23.2
10,Cc1ccc(C)c(S(=O)(=O)Nc2ccc3sc(C)nc3c2)c1,-0.359
11,CCn1c(SCC(=O)N(C)C2CCS(=O)(=O)C2)nnc1-c1ccccc1 (centres unmarked),14.4
12,Nc1c(C(=O)NCc2ccccc2)sc2nc(N3CCOCC3)c3c(c12)CCCC3,0.57
13,O=C(CCNC(=O)c1ccccc1Cl)NN1C(=O)NC2(CCCCC2)C1=O,-4.92
14,CCCCC1=CC2=C(c3ccco3)C(=O)C(C)(OC(=O)c3ccc(OC)cc3)C(=O)C2=CN1Cc1ccccc1 (centres unmarked),-21.9
15,Cc1cc(Cl)c(S(=O)(=O)N2CCN(c3ccc(F)cc3)CC2)cc1OCC(=O)NC1CCCCC1,-0.282
16,CC1CN(C(=O)CCNS(=O)(=O)c2ccc(Br)cc2)CC(C)O1 (centres unmarked),-17.2
17,Cc1ccc(S(=O)(=O)N2[C@@H](c3ccccc3)C(C(=O)O)=CC[C@H]2c2ccc(C(C)C)cc2)cc1,17.7
18,Cc1ccc(-c2nc(NC(=O)c3cc(C(C)(C)C)nn3C)sc2C)cc1Cl,12.9
19,CC1(C)C[C@H]2C3=CCC4[C@@]5(C)CC[C@H](O)[C@](C)(CO)C5CC[C@@]4(C)[C@]3(C)C[C@H]3O[C@@H]1[C@H](O)[C@]32CO (some centres unmarked),21
20,CCOC(=O)C1C(=O)Nc2nc(C)nn2C1c1ccccc1 (centres unmarked),14.4
21,CCOc1ccccc1C(=O)NCC(=O)Nc1ccc(-c2ccccc2)cc1,0.26
22,CCc1cc2cc(C)cc(C)c2nc1SCC(=O)N1CCN(C(=O)c2ccco2)CC1,-16.2
23,O=[N+]([O-])c1cccnc1N/N=C/c1ccccc1O,8.24
24,Cc1ccccc1Nc1nc(N)nc(CSc2nncn2C)n1,4.34
25,COC(=O)c1cc(C(=O)NCCC(C)C)cc([N+](=O)[O-])c1,4.78
26,O=C(NC1CCCCC1)C(c1ccc2ncccc2c1)N(Cc1cccs1)C(=O)c1cccs1 (centres unmarked),-51.3
27,O=S(=O)(/N=C(\c1ccc(Cl)cc1)N1CCOCC1)c1ccccc1,3.03

row,Compound,"hERG current change (%, negative = inhibition) at 10uM [%]"
1,COc1ccccc1CC(=O)OC(C)C(=O)Nc1ccc(S(=O)(=O)N2CCCCC2)cc1 (centres unmarked),-7.21
2,COc1ccc(C)cc1NC(=O)CN(c1ccccc1)S(C)(=O)=O,1.57
3,Cc1cccc(N2CCN(C(=O)c3cc(S(=O)(=O)N4CCCC4)cn3C)CC2)c1C,-38
4,CCOc1ccc(C(=O)N2CCN(c3cccc(C)c3C)CC2)cc1,-79.9
5,CCC1=NN2C(=N)/C(=C/c3ccc(OS(=O)(=O)c4ccccc4)cc3)C(=O)N=C2S1,-3.25
6,Cl.NCCCCCc1nnc(SCC(N)=O)o1,3.24
7,CCOC(=O)C1=NNC(C(=O)c2ccc(OC)cc2)C1c1ccccc1 (centres unmarked),-9.43
8,Cc1ccc(N(Cc2cc3cc(C)ccc3[nH]c2=O)C(=O)c2cccs2)cc1,8.1
9,COc1ccccc1NS(=O)(=O)c1cccc(NC(=O)Cc2cccs2)c1,4.01
10,O=C(N/N=C/c1ccoc1)c1cccc([N+](=O)[O-])c1,9.75
11,O=C(CSc1ncnc2sccc12)N1CCN(C(=O)c2cccs2)CC1,-47.1
12,Cc1cc(N2CCC(C)CC2)nc2cccc(O)c12,-28.7
13,CCCCC(=O)NC(=S)Nc1cccc(NC(=O)c2ccccc2)c1,23.4
14,CC(C)c1ccccc1NC(=S)NCc1nc2ccccc2[nH]1,12.1
15,COc1ccc(CCNC(=O)COC(=O)C2CCCCC2)cc1,7.11
16,COc1ccc(C)cc1NC(=O)C1CC(=O)OC12CCCCC2 (centres unmarked),-3.97
17,O=C(Nc1nccs1)c1ccc(-c2ccc([N+](=O)[O-])cc2)o1,13.4
18,Cc1ccc2c(c1)nnn2C1CCN(CC(=O)NCc2ccccc2F)CC1,-59.9
19,O=C(Cc1nnc(NC(=O)c2ccccc2)s1)N/N=C\c1ccc(O)c(O)c1,23.4
20,O=C(CNS(=O)(=O)c1ccc2ccccc2c1)NCCc1ccccn1,-0.702
21,O=c1[nH]c(=O)n(-c2ccccc2)c2c1C(C(F)(F)F)(C(F)(F)F)N=C(C1CCCCC1)N2,3.73
22,COc1cc(/C=N/NC(=O)c2cc(-c3ccccc3)sc2N)cc(OC)c1OC,15.4
23,COc1ccc(-n2cccc2/C=C2\C(=N)N3N=C(C(C)C)SC3=NC2=O)cc1,4.49
24,COc1ccc(NC(=O)C/C(C)=N/NC(=O)c2ccncc2)c([N+](=O)[O-])c1,-59.8
25,CCCC[C@@H]1CNC(=S)N1CCC12CC3CC(CC(C3)C1)C2,18.9
26,COCCNC(=S)N(CCc1c(C)[nH]c2ccc(F)cc12)Cc1ccc(C)cc1,8.54
